The text below walks through data of PMC12136788.

To fix the notation:
B1: chr10:34018870:34018871:+_ENSMUSG00000039485_ENSMUST00000047935|mus_hu|FALSE|FALSE (ssRNA)
RNA: GGGAGUUCUACAGUCCGACGAUCCUUACCAUAAGUACAUGGGUAUCAGGACACAGCCAGCAUAAAGUAUGAAGCCCAAUCAGUUAUUUGUGAAAAUGUAUCAAGAUUCUUUGUGGUACAGAACCACUUAAAUUGGGAGAAGAGCAACAGAGGAUUGAGCAUCA
B2: chr1:180971808:180971809:-_ENSG00000135823_ENST00000258301|hu_mus|motif|central (ssRNA)
RNA: GGGAGUUCUACAGUCCGACGAUCUUUUCUUAUGCUCAAUUCAGUUGCAUCCAAGUUGAAUUUUCUAGGAUUUGCUUCAACGGUGCUGAUGGUUUCAUCGAGGUCCUCCAGAUCCCACUCUAUGCUGCGGAGAUUGUUCCUCAGCAACAGAGGAUUGAGCAUCA
B3: chr1:39494564:39494565:+_ENSG00000168653_ENST00000372967|hu_hu|hu_hu_hu_mus_True|98_108 (ssRNA)
RNA: GGGAGUUCUACAGUCCGACGAUCAUGUGCACGUCUCAUCGUUUUCUACCGAAGCAAGCACUCUUCGAAGUCAUCGAACUCUAUCUUGCACUCCUUUUUCGCCCGGGUCCCACCGAUCCCGUGUGCACACUCUAUCCACUCUUUCAACAGAGGAUUGAGCAUCA
B4: 129999435_130001125_434_CDS_ENSMUSG00000027404_ENSMUST00000103199|mouse|control|control (ssRNA)
RNA: GGGAGUUCUACAGUCCGACGAUCAGCCCUGCCGAUGCCUGGCCCCCCAGCAGCUCCAGCAAGUGGCACUCGGGCAAUGCCAGUAUCUUUGGGAGGAGGUCCUUCUACUGUCAUGGAGACCAGGUUCUCCCCUCGAAGCAACACCAACAGAGGAUUGAGCAUCA
B5: chr3:98235988:98235989:-_ENSG00000080822_ENST00000341181|hu_hu|motif|central (ssRNA)
RNA: GGGAGUUCUACAGUCCGACGAUCUAAGCUUCGGCAAAUGCAAGCACAAAGUCCGAUCAAAGCCCCAAAGCACAUCAAACCGGAACUCACAAAAGGUAAAAGGAACUGGCAACGCCAAAGAUAGGUCCUAAGGAGAUCAAUCCCCAACAGAGGAUUGAGCAUCA
B6: chr1:66461069:66461070:+_ENSMUSG00000015222_ENSMUST00000114013|mus_hu|motif|central (ssRNA)
RNA: GGGAGUUCUACAGUCCGACGAUCCUGACUGUCCGUUUUUACAAUGACAUGGUUUUCAUCAGUUACCGGGGGCAAGCCAGUACGACGGUCCUCAACCACAGUCUCUGAUGGGACUGAUUUCCUCCUGGCAACCUCAGCAUCUGCCAACAGAGGAUUGAGCAUCA
B7: chr10:33190432:33190433:-_ENSG00000150093_ENST00000302278|hu_mus|hu_hu_hu_mus_True|18_98 (ssRNA)
RNA: GGGAGUUCUACAGUCCGACGAUCUACAUUUUCCAAACCUGCACAUGAAUAAAACCCUGGCCACAGAGCCCCAAAACUACCCUACUGUGACUAAGAUGCUGCUGCUGUGAGCUUGGUUGUUGUGGGACCGCCUGAGUAGGAUUCCAACAGAGGAUUGAGCAUCA
B8: chr1:8037743:8037744:+_ENSG00000116288_ENST00000493373|perfect_dup|FALSE|FALSE (ssRNA)
RNA: GGGAGUUCUACAGUCCGACGAUCUCCAUUCAUCAUUUUGUCUUUAGCAAGAGGGUGUGUUGUAACUUUACUUCCAAAACCUAUUUCAUGAGCCAACAGAGCAGUAGGACCUGCACAGAUGGCGGCUAUCAGGCCCUUCCGGUUCAACAGAGGAUUGAGCAUCA
B9: chr8:23117756:23117757:+_ENSG00000147457_ENST00000313219|hu_mus|FALSE|FALSE (ssRNA)
RNA: GGGAGUUCUACAGUCCGACGAUCUUCAAGUUCAGCAUCCAAGAUCCUAGGCUUAGGCACACUGUUGGUAUAAAGCGUUGUCUCCUGGGGGGUUUCGAGCAGGCUCAAAGGUUCUGUGGUGGUGUCCUGAAGGAGGAUGUCCAACAACAGAGGAUUGAGCAUCA
B10: chr8:117878989:117878990:-_ENSG00000164754_ENST00000297338|hu_hu|FALSE|FALSE (ssRNA)
RNA: GGGAGUUCUACAGUCCGACGAUCCCAGAGGCCCUCUUUUACUGAGAACAAAAUGUGCGUAGAACAUUGUUCUGGCUGGCUAUGAAAACAGAAGAAAACCUUGCUCUCCGCUGGGAGUUGGGCGGGCUGGGUGGCCCGGGGAGGCAACAGAGGAUUGAGCAUCA
B11: 125006364_125006606_7467_CDS_ENSMUSG00000014444_ENSMUST00000067252|mouse|control|control (ssRNA)
RNA: GGGAGUUCUACAGUCCGACGAUCCCCUGUGCCCACUUGCUCCCUCCGCAGCUGGAUGCGCACACCAAGGUAGUCCUCUUCCUCAUCUGGCUGCAGCUGCUUCACAGGGUUGGCUUCAGGCCCAUUGGGAGCACGAAUGUACUUCAACAGAGGAUUGAGCAUCA
B12: 12333574_12338705_554_CDS_ENSMUSG00000064127_ENSMUST00000096495|mouse|control|control (ssRNA)
RNA: GGGAGUUCUACAGUCCGACGAUCUGGCAAUAAGUCCGUCAACACCAUAAGCUCCGAGUAGGCCCGGUGGAGCAGAAAUUCGAUGAGCGUGCUAAGCCGGUAUCCAGGGCUAGCUGCCGCCGCAGCUGCCGCCGCCACAGCGGCCAACAGAGGAUUGAGCAUCA
B13: chr6:52679276:52679277:+_ENSMUSG00000004535_ENSMUST00000080723|mus_hu|FALSE|FALSE (ssRNA)
RNA: GGGAGUUCUACAGUCCGACGAUCGUAACAGAACUGAUAAAAUUCUCCAUCAUCAUUUGGAAGGUAAUAUCCUUGGAAUGCUAGUACACAAUUGACUGUUGAUCCUUCCACAUAAUGUUCAGGCAUAGGGGACCAUAAAAACGUCAACAGAGGAUUGAGCAUCA
B14: chr19:53710959:53710960:+_ENSMUSG00000024974_ENSMUST00000025930|mus_mus|FALSE|FALSE (ssRNA)
RNA: GGGAGUUCUACAGUCCGACGAUCACGGAUUUCAUCAUUCAGAGCGUCGACUCUUUUCUGAUCUUCCAGACUGAGUUGAGAAAGCAAAUCCGUUCCUAGCUCCGCUUUCAGUGACUCUCUGGUGGACUCCAUAGCAUGCAGACUCAACAGAGGAUUGAGCAUCA
B15: chr16:94915998:94915999:+_ENSMUSG00000022897_ENSMUST00000023614|mus_hu|FALSE|FALSE (ssRNA)
RNA: GGGAGUUCUACAGUCCGACGAUCUUUUGAUAUUGCUAUACUCAAGAUGAUAUCCUUUUAUUCACUGUAAACCUUUAUGAACUACCAAGUUCAAAAAAAUCAUCCACAGGCUUGACAGUUAAUUACAAAAUAAAUAUGGAUUUCCAACAGAGGAUUGAGCAUCA
B16: chr19:5716489:5716490:-_ENSMUSG00000024937_ENSMUST00000075606|mus_mus|FALSE|FALSE (ssRNA)
RNA: GGGAGUUCUACAGUCCGACGAUCUACCAUGUCCGCCGGCUCGAGCAGCCGAGACACACCCAGGGCAGCGAAGCCAUCAAAAGCCUGCUUGUUGUUCUGUUUGAUGUUGAGGGGAUCAAGGGAGAAAUAAUCGAUCUUGUCUGGCAACAGAGGAUUGAGCAUCA
B17: chr2:26769575:26769576:-_ENSMUSG00000015790_ENSMUST00000167661|mus_mus|motif|central (ssRNA)
RNA: GGGAGUUCUACAGUCCGACGAUCUGGGCUGUUCUCCGGAACAAAGGGCUUCCUGUUUUCUGUGAGCCUCACUAUGCCAACGGGGUCGGCUUCUCCCAGAACCUGGCCUUUCUGUCUGGUCUCAGGAUUCACUUUCUUCCUGGGCAACAGAGGAUUGAGCAUCA
B18: chr4:175160266:175160267:-_ENSG00000164117_ENST00000503293|hu_mus|FALSE|FALSE (ssRNA)
RNA: GGGAGUUCUACAGUCCGACGAUCAGGGGCAUGAAUAUGACGAAAAAAUUCUCUCAGUGCAUUCGGCAAGAACUGAUUUCUAAAAUUAUGCAAGGUUACAAGGUCAUCCAAGACAUCUCUCCUUUCAUCAAGAUAGAUUCUCAGCAACAGAGGAUUGAGCAUCA
B19: chr2:103616161:103616162:-_ENSMUSG00000027184_ENSMUST00000111147|mus_hu|FALSE|FALSE (ssRNA)
RNA: GGGAGUUCUACAGUCCGACGAUCCUCAUCUACCUGCUCCUUUUCACCACUGGUGAACUGUGUUUCUGCCAUGAACUGUCUAUUUACAUACUCUGUUGAUUCAACUUCACUUUGCUCAGUGUACUCUUCUGCUGGCUCAGGUUCCAACAGAGGAUUGAGCAUCA
B20: chr1:60041781:60041782:+_ENSMUSG00000041040_ENSMUST00000036540|mus_mus|FALSE|FALSE (ssRNA)
RNA: GGGAGUUCUACAGUCCGACGAUCUUAAGGAGUGAAUCUCAACUUUACAAAUUUAGUAAUGGCAAGUUUACUUUAGUUUCCUAAAAGAAAACCUCAGGAUCUCAGUUCAAUCCCAGACAGAGAAAGCUCUCCAUGGGGCCACUGCAACAGAGGAUUGAGCAUCA
B21: chr2:121050808:121050809:+_ENSG00000144118_ENST00000272519|hu_hu|FALSE|FALSE (ssRNA)
RNA: GGGAGUUCUACAGUCCGACGAUCAGCAGCUGGCUUCAUCCGUCACCUUGACACUCAUAGUAAGCAACAUCUUUCUUUAAAACUUUUCUUGUUCUUGCUGCUUUUCUUGCCAUUCUUGUCUUUGUUUUCUGACAUCUUCUUUGUCAACAGAGGAUUGAGCAUCA
B22: chr9:53370893:53370894:+_ENSMUSG00000033054_ENSMUST00000035850|mus_hu|motif|central (ssRNA)
RNA: GGGAGUUCUACAGUCCGACGAUCUGCUGAAUCAUUAGAUGGUUGUUUAGUAGAAGACAGCGAAUCUCCAAGAUGAAUUUCGGCUUGUCCAGAUACAUUUAAAUGUGAACUUUCAACAGACACAGGUAGUAUUUCACUUUGAAGCAACAGAGGAUUGAGCAUCA

This is one part of the list.

The test deals with T1, UNK ZnF1-3 (human, UniProt Q9C0B0 31-174).
T1 sequence: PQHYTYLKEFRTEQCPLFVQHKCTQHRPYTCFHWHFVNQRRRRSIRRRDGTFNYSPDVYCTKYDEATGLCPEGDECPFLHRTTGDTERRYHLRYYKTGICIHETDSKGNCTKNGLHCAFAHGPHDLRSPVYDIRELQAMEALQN
The test is described as follows: nsRBNS (natural sequence RNA bind-n-seq); RBNS binding buffer (assumed for nsRBNS): 25 mM Tris pH 7.5, 150 mM KCl, 3 mM MgCl2, 0.01% Triton X-100, 500 ug/ml BSA, 20 U/ml SUPERase-In, 4 C; UNK is unkempt and MSI1 is Musashi-1; names of the RNAs are library labels; protein concentration not given here; high values mean tight binding.
Turning to B1, the binding signal was found to be 1.84 enrichment R.

B2 came in with a binding signal of 0.435 enrichment R.

Take B3: the binding signal turned out to be 0.637 enrichment R.

B4 came in with a binding signal of 1.37 enrichment R.

Regarding B5, the binding signal worked out at 1.61 enrichment R.

On to B6, for which the binding signal amounted to 0.687 enrichment R.

In turn, B7 had a binding signal of 1.45 enrichment R.

On to B8, for which the binding signal worked out at 1.05 enrichment R.

As to B9, the binding signal worked out at 1.15 enrichment R.

B10 showed a binding signal of 1.4 enrichment R.

Consider B11, for which the binding signal was 0.589 enrichment R.

For B12, the binding signal was found to be 1.48 enrichment R.

As for B13, the binding signal was determined as 0.87 enrichment R.

B14 had a binding signal of 0.48 enrichment R.

On to B15, for which the binding signal was 0.802 enrichment R.

In turn, B16 registered a binding signal of 1.45 enrichment R.

Consider B17, for which the binding signal worked out at 0.553 enrichment R.

B18: the binding signal was determined as 1.4 enrichment R.

As to B19, the binding signal amounted to 0.428 enrichment R.

Molecule B20 returned a binding signal of 0.716 enrichment R.

B21 gave a binding signal of 0.448 enrichment R.

For B22, the binding signal was determined as 0.797 enrichment R.
